{"source": "PubChem BioAssay AID504332", "about": "(National Center for Advancing Translational Sciences (NCATS), 2011)", "note": "Hit rate of the full screen: of about 350,000 compounds, about 31,000 (8.9%) were called active. The inconclusive results got no clear call from the source; some entries with a clear call stand among them for comparison. Calls follow the shape of the dose curve; as a rule, active = well fitted inhibition curve with a large enough effect; inconclusive = small, poorly fitted or top-dose-only effect; inactive = no such curve, though single readings can be large or run the other way. Potencies beside an inconclusive call are fits to weak or partial responses and may not hold up. % is scaled to controls: 0 for no effect and ±100 for the full control effect; potency is read from the fitted curve at half-maximal effect; tags tell the direction and shape of the fitted curve."}
{"biological_target": "Histone-lysine N-methyltransferase EHMT2 (Homo sapiens) (UniProt Q96KQ7)", "sequence (Q96KQ7 whole entry, looked up)": "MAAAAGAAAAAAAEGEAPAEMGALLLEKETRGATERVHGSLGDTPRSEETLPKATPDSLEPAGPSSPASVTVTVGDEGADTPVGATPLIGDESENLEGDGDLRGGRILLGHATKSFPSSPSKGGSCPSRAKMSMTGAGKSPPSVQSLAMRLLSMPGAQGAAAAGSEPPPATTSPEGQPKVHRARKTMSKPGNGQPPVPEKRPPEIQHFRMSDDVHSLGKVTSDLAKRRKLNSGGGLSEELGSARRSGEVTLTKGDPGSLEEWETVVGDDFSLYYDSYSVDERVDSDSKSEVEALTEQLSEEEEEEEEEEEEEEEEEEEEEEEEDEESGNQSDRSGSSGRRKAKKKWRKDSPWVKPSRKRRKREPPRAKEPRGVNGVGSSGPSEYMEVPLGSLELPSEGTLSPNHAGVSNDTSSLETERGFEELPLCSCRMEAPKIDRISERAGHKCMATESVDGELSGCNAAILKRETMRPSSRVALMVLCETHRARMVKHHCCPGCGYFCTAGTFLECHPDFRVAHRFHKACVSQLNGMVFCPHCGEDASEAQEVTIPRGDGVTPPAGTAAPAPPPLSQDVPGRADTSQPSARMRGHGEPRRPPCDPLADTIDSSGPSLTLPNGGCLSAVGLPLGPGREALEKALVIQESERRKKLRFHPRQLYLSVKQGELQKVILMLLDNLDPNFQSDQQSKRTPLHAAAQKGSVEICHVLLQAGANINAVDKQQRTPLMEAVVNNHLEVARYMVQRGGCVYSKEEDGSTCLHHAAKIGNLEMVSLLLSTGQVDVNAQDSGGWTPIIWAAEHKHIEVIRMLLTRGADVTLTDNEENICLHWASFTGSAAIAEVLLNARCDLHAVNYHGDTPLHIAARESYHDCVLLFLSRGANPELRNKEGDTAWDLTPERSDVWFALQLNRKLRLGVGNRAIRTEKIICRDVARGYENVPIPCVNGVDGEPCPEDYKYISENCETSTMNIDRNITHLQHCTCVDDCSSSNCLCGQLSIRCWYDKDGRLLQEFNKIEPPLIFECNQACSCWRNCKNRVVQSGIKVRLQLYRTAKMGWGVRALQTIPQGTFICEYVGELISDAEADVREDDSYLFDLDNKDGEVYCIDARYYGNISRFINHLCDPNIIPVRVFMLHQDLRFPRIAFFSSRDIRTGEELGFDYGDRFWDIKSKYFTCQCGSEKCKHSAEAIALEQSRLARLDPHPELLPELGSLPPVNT", "test": "qHTS Assay for Inhibitors of Histone Lysine Methyltransferase G9a; also: nearly all actives have a fitted effect of over 75% in size", "conditions": "G9a H3K9 monomethylation, AlphaScreen, 2 h; activity, negative = inhibition: at 59 µM (top of the series) unless noted", "outline": "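AlphaScreen read-out: biotin-H3K9 peptide (500 nM) methylation by 20 nM enzyme with 20 uM SAM, 2 h at room temperature after 15 min compound preincubation; anti-monomethyl H3K9 antibody plus donor/acceptor beads, 10 min dark.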"}
{"smiles": "CC(=O)Nc1ccc(S(=O)(=O)N2CCN(Cc3ccccn3)CC2)cc1", "Potency": "inconclusive: 3.16 µM [inhibitor, partial curve, poor fit]"}
{"smiles": "Cn1nc(-c2ccc(C(=O)Nc3ccc(F)cc3)cc2)c2ccccc2c1=O", "Potency": "inconclusive: 79.4 µM [inhibitor, single point]"}
{"smiles": "O=C(c1coc(=O)c2ccccc12)N1CCN(Cc2ccccc2)CC1", "Potency": "inconclusive: 89.1 µM [inhibitor, single point]"}
{"smiles": "COc1cccc(C2c3[nH]c4ccccc4c3CCN2Cc2cccc(C)n2)c1", "note": "(centres undefined)", "Potency": "active: 44.7 µM"}
{"smiles": "COc1cc2c(cc1OC)C(c1ccccc1)N(C(=O)c1ccccc1)CC2", "note": "(centres undefined)", "Potency": "inactive"}
{"smiles": "COc1cccc(NC(=S)/C(=C(\\[O-])c2cc(C)n(-c3ccccc3F)c2C)[n+]2ccc(N(C)C)cc2)c1", "Potency": "active: 35.5 µM"}
{"smiles": "Cc1cccc(-c2c3c(=O)n(C)c(=O)n(C)c3cn2-c2ccccc2O)c1", "Potency": "inconclusive: 79.4 µM [inhibitor, partial curve, poor fit]"}
{"smiles": "CC(=O)N1CCCc2cc(S(=O)(=O)N3CCCC(C(=O)Nc4ccccc4C)C3)ccc21", "note": "(centres undefined)", "Potency": "inactive"}
{"smiles": "CCN1C2=NCCCN2c2ccccc21", "Potency": "inconclusive: 89.1 µM [inhibitor, partial curve, poor fit]"}
{"smiles": "O=C(O)Cc1csc(NC(=O)c2ccco2)n1", "Potency": "inconclusive: 2.24 µM [inhibitor, partial curve, poor fit]"}
{"smiles": "CN1CCc2nc(SCCOc3ccccc3)c(C#N)cc2C1", "Potency": "inconclusive: 7.08 µM [inhibitor, single point]"}
{"smiles": "Cc1occc1C(=O)Nc1cc(=O)n(C)c(=O)n1C", "Potency": "inconclusive: 28.2 µM [inhibitor, single point]"}
{"smiles": "CN(CC(=O)Nc1ccccc1Cl)C(=O)CSc1nncn1C", "Potency": "inconclusive: 89.1 µM [inhibitor, partial curve, poor fit]"}
{"smiles": "CCOC(=O)N1CCN(c2c(NCC3CCCO3)c(=O)c2=O)CC1", "note": "(centres undefined)", "Potency": "inconclusive: 89.1 µM [inhibitor, partial curve, poor fit]"}
{"smiles": "Cc1ccc(-c2onc3ccc(C(=O)O)cc23)cc1", "Potency": "active: 39.8 µM"}
{"smiles": "Cn1c(SCc2ccc(C#N)cc2)nnc1-c1ccccc1", "Potency": "inconclusive: 79.4 µM [inhibitor, single point]"}
{"smiles": "NCCCNCCCCNCCCNC(=O)CCc1ccc(O)cc1", "Potency": "inconclusive: 2.51 µM [inhibitor, partial curve]"}
{"smiles": "COc1ccc2c(CC(=O)OCC(=O)c3ccc(F)cc3)coc2c1", "Potency": "inconclusive: 89.1 µM [inhibitor, single point]"}
{"smiles": "O=C(Cc1ccc(-n2c(=O)c3ccccc3n(Cc3ccc(F)cc3)c2=O)cc1)NCC1CCCO1", "note": "(centres undefined)", "Potency": "inconclusive: 1.41 µM [inhibitor, partial curve, poor fit]"}
{"smiles": "Cc1oc(-c2ccc(Cl)cc2)nc1CN1CCCC(C(=O)N2CCOCC2)C1", "note": "(centres undefined)", "Potency": "inconclusive: 89.1 µM [inhibitor, single point]"}
{"smiles": "CN(C)c1ccc(C2CC(=O)NC3=C2C(=O)CC(C)(C)C3)cc1", "note": "(centres undefined)", "Potency": "inconclusive: 3.55 µM [inhibitor, full curve]"}
{"smiles": "CNc1cc(N2CCN(S(=O)(=O)N(C)C)CC2)ccc1[N+](=O)[O-]", "Potency": "inactive"}
{"smiles": "O=C(Nn1c(COc2ccccc2)nc2ccccc2c1=O)C(Cl)(Cl)Cl", "Potency": "active: 50.1 µM"}
{"smiles": "Cc1sc(N)nc1-c1cccs1", "Potency": "inconclusive: 25.1 µM [inhibitor, single point]"}
{"smiles": "CCOC(=O)NC(NC(=S)Nc1ccc(OC)cc1)C(Cl)(Cl)Cl", "note": "(centres undefined)", "Potency": "active: 6.31 µM"}
{"smiles": "CC1CN(C(=O)Nc2ccc(C(=O)NCc3cccc(F)c3)cc2)c2ccccc2S1", "note": "(centres undefined)", "Potency": "inactive"}
{"smiles": "O=C(Nc1ccc(NC(=O)C2CCCCC2)nc1)c1cccs1", "Potency": "inconclusive: 70.8 µM [inhibitor, partial curve, poor fit]"}
{"smiles": "COc1cc(OC)c2c(-c3ccccc3)cc(=O)oc2c1C(CCN1CCOCC1)c1ccc(N(C)C)cc1", "note": "(centres undefined)", "Potency": "active: 14.1 µM"}
{"smiles": "Cc1cc(C)cc(Oc2nc3c(c(=O)n(C)c(=O)n3C)n2Cc2ccc(F)cc2)c1", "Potency": "inactive"}
{"smiles": "COc1ccc(-n2c(Cc3cc(=O)[nH]c(=O)[nH]3)nnc2SCC(=O)Nc2ccccc2)cc1", "Potency": "inconclusive: 89.1 µM [inhibitor, single point]"}
{"smiles": "CC12CCC(C[N+](C)(C)C1)C2(C)C", "note": "(centres undefined)", "Potency": "inconclusive: 12.6 µM [inhibitor, partial curve]"}
{"smiles": "COc1ccc(C(=O)O)cc1NC(=S)NC(=O)c1ccc(-c2ccc(Cl)cc2)o1", "Potency": "active: 44.7 µM"}
{"smiles": "O=C(CCc1ccc(Oc2cc([N+](=O)[O-])cc([N+](=O)[O-])c2)cc1)N1CCCCC1", "activity, negative = inhibition": "inconclusive: -69.8% [inhibitor]"}
{"smiles": "COc1cc(C(=O)Nc2ccc3oc(-c4ccc(C)c(Br)c4)nc3c2)cc(OC)c1OC", "Potency": "inconclusive: 25.1 µM [inhibitor, partial curve, poor fit]"}
{"smiles": "COc1cc(C(=S)N2CCOCC2)ccc1OC(=O)c1cccc(C)c1", "Potency": "active: 22.4 µM"}
{"smiles": "COC(=O)c1c(NC(=O)CN2CCC3(O)CCCCC3C2c2ccc(OC)cc2OC)sc(C)c1C", "note": "(centres undefined)", "Potency": "active: 28.2 µM"}
{"smiles": "Cn1c(=O)[nH]c(Nc2ccccc2)c([N+](=O)[O-])c1=O", "Potency": "inconclusive: 79.4 µM [inhibitor, single point]"}
{"smiles": "COc1ccc(N2CCN(c3oc(/C=C/c4cc(OC)c(OC)c(OC)c4)nc3C#N)CC2)cc1", "Potency": "inconclusive: 5.01 µM [inhibitor, full curve, poor fit]"}
{"smiles": "COc1ccc(CCNC(=O)CCC(=O)n2ncc3ccc(Cl)cc32)cc1OC", "Potency": "inactive"}
{"smiles": "CN(C)CC(O)COc1cc2ccccc2cc1C(=O)N1CCCCC1", "note": "(centres undefined)", "Potency": "inconclusive: 79.4 µM [inhibitor, partial curve, poor fit]"}
{"smiles": "C=CCn1c(-c2ccoc2C)n[nH]c1=S", "Potency": "inconclusive: 2 µM [inhibitor, full curve, poor fit]"}
{"smiles": "CC(C)COc1ccc(C(=O)CCN2CCCCC2)cc1", "Potency": "active: 15.8 µM"}
{"smiles": "CN(C)S(=O)(=O)c1cccc(-n2sc3ccccc3c2=O)c1", "Potency": "inactive"}
{"smiles": "COc1ccc(CNC(=O)CN2C(=O)c3cccnc3Oc3ccc(C)cc32)cc1", "Potency": "inactive"}
{"smiles": "O=C(Cc1ccccc1)Nc1ccc2c(c1)OC1(CCCC1)O2", "Potency": "inconclusive: 2.51 µM [inhibitor, partial curve, poor fit]"}
{"smiles": "CCS(=O)(=O)Nc1ccc(C2=NN(C(=S)Nc3ccccc3)C(c3ccco3)C2)cc1", "note": "(centres undefined)", "Potency": "inconclusive: 89.1 µM [inhibitor, single point]"}
{"smiles": "Cc1cc(C)c2c(CC(=O)Nc3c(C(=O)Nc4ccc(Cl)cc4)oc4ccccc34)coc2c1", "Potency": "inactive"}
{"smiles": "Cc1cc(=O)oc2c(CN3CC(C)OC(C)C3)c(O)c(Cl)cc12", "note": "(centres undefined)", "Potency": "inconclusive: 44.7 µM [inhibitor, single point]"}
{"smiles": "O[C@@H]1[C@@H]2c3cc4c(cc3CN3CCC(=C[C@@H]1O)[C@H]23)OCO4", "Potency": "inactive"}
{"smiles": "CCOc1cc(N2CCOCC2)c(OCC)cc1NC(=O)Cn1cnc2c(=O)n(C)c(=O)n(C)c21", "Potency": "inconclusive: 56.2 µM [inhibitor, partial curve]"}
{"smiles": "CC12CC3CC(C)(C1)CC(C(=O)N1CCN(C(=O)c4ccco4)CC1)(C3)C2", "Potency": "inconclusive: 15.8 µM [inhibitor, partial curve, poor fit]"}
{"smiles": "CCCNc1ccc(C(=O)OCC)cc1[N+](=O)[O-]", "Potency": "inconclusive: 14.1 µM [inhibitor, partial curve]"}
{"smiles": "COc1ccc(OC)c(S(=O)(=O)Nc2cc3c4c(c2)CC(=O)N4CCC3)c1", "Potency": "inconclusive: 79.4 µM [inhibitor, single point]"}
{"smiles": "CCOC(=O)c1cnc2nc(SC)nn2c1N", "Potency": "inconclusive: 7.94 µM [inhibitor, full curve, poor fit]"}
{"smiles": "O=c1[nH]c(N/N=C\\c2ccc(F)cc2)nc2ccccc12", "Potency": "inconclusive: 70.8 µM [inhibitor, partial curve]"}
{"smiles": "CCOC(=O)c1cc2sccc2n1CC(=O)Nc1ccc(OC)cc1", "Potency": "inconclusive: 89.1 µM [inhibitor, single point]"}
{"smiles": "Nc1c(C(=O)NCCN2CCOCC2)c2nc3ccccc3nc2n1-c1cccc(F)c1", "Potency": "inconclusive: 31.6 µM [inhibitor, partial curve, poor fit]"}
{"smiles": "CCN1CCN(C(=S)c2ccc(Cl)cc2)CC1", "Potency": "inconclusive: 1.58 µM [inhibitor, full curve, poor fit]"}
{"smiles": "COC(=O)Cc1ccc(NC(=S)NCc2ccccc2Cl)cc1", "Potency": "inconclusive: 79.4 µM [inhibitor, single point]"}
{"smiles": "CCCC(=O)N1CCN(c2ccc(NC(=O)c3ccco3)cc2)CC1", "Potency": "inconclusive: 89.1 µM [inhibitor, partial curve, poor fit]"}
{"smiles": "Cc1c(C(=O)NN)nc2ccccn12", "Potency": "inactive"}
{"smiles": "CC1CCCCN1C(=O)COC(=O)c1ccc(=O)n(Cc2ccccc2)n1", "note": "(centres undefined)", "activity, negative = inhibition": "inactive: 23.4% [at 2.33 µM]"}
{"smiles": "C[C@H](O)[C@H](O)[C@H]1CNc2nc(N)[nH]c(=O)c2N1", "Potency": "active: 1.41 µM"}
{"smiles": "CCc1ccc(CNC(=O)CN2CCSc3ccccc32)cc1", "Potency": "inconclusive: 39.8 µM [inhibitor, single point]"}
{"smiles": "CCOC(=O)N1CCc2c(sc3c2c(=O)n(CCc2ccccc2)c(=O)n3Cc2c(F)cccc2Cl)C1", "Potency": "inactive"}
{"smiles": "Cc1ccsc1/C=N/NC(=O)Cc1cccn1C", "Potency": "inconclusive: 70.8 µM [inhibitor, single point]"}
{"smiles": "Nc1c(-c2ccc(Cl)cc2)cnn1-c1ccccc1", "Potency": "inactive"}
{"smiles": "C=CCn1c(C)cc(/C([O-])=C(/C(=S)Nc2ccc(OC(F)F)cc2)[n+]2ccc(N(C)C)cc2)c1C", "Potency": "active: 39.8 µM"}
{"smiles": "CCCn1c(SCC(=O)c2cc(C)n(-c3cc(C)on3)c2C)n[nH]c1=O", "Potency": "inconclusive: 50.1 µM [inhibitor, partial curve, poor fit]"}
